Experimental data reported in PubChem BioAssay AID488969 (Vanderbilt High Throughput Screening Facility, 2010).
The full ranking holds about 110,000 compounds; the median of “z-score” is about -0.1, and the highest 2% start at about 2. The list shows a part of the results. Calls of active or inactive are those of the source.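 The calls were made as follows: active = z-score in the third read window above 3 or below -3; inactive = the rest.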

These molecules were tested against Metabotropic glutamate receptor 8 (Rattus norvegicus) (UniProt P70579) (assay: rat mGluR8 modulators via GIRK flux, primary screen, cell-based, thallium flux, HTS (AID 488969)). Conditions: HEK293 rat mGluR8, GIRK (G protein-gated inwardly rectifying potassium channel) thallium flux, FluoZin2; at 10 µM; stronger effect = higher value; submaximal glutamate (EC20) added with thallium.
Chain of UniProt P70579 (P70579 whole entry, looked up): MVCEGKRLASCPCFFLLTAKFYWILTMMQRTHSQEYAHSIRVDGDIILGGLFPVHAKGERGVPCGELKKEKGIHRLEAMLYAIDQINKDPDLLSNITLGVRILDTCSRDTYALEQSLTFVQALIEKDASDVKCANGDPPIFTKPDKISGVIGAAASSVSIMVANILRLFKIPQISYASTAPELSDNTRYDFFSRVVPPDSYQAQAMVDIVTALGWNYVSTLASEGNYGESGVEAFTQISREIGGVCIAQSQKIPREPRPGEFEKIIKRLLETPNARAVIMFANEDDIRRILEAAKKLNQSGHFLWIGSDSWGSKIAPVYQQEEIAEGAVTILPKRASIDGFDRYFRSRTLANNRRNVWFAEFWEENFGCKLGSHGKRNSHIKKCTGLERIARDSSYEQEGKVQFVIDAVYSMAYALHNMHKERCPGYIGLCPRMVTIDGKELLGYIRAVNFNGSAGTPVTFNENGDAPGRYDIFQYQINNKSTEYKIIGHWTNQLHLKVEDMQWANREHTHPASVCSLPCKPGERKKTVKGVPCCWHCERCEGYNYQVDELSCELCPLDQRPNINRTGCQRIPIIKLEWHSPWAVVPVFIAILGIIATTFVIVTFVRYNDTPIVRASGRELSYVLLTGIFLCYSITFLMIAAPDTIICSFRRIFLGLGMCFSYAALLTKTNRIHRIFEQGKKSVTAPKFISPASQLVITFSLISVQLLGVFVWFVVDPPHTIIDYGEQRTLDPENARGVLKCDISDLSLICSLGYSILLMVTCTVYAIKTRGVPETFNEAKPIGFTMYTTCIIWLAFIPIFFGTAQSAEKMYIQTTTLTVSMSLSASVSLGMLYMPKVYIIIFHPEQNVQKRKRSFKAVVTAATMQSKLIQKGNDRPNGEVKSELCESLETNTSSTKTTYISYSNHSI

Compared with COc1ccccc1CNC(=O)CCNC(=O)Cn1ccc2ccccc2c1=O, CNC(=O)c1cc(Nc2nnc(C)c3ccccc23)ccc1OC is higher in z-score: 0.853 for the first, 0.937 for the second.

Going from Cc1ccc(S(=O)(=O)Cc2ccc(C(=O)OCc3ccccc3)cc2)cc1 to Cc1ccc(S(=O)(=O)N(CCC(=O)Nc2ccc(OC(F)(F)F)cc2)c2ccccc2)cc1, the z-score rises from -0.471 to -0.147.

Compared with CCC(C)Cn1c(C(C)O)nc2ccccc21 (stereo unspecified), CC(C)n1c(C(O)c2ccccc2)nc2ccccc21 (stereo unspecified) is lower in z-score: -0.0788 for the first, -0.297 for the second.

Going from COc1cnc(-c2ccccn2)nc1Oc1ccccc1Cl to CSc1nc(-c2ccc(Cl)cc2)nn1C(=O)c1ccccc1, the z-score rises from -0.437 to -0.147.

First: CN(C)C(=O)C1OC(C)(C)OC1C(=O)N(C)C (stereo unspecified)
Second: Cc1ccc(N(C(C)C(=O)O)S(=O)(=O)c2c(C)[nH]c(=O)[nH]c2=O)cc1 (stereo unspecified)
The z-score of the first is higher: 0.649 for the first, 0.294 for the second.

Compared with CC1(C)Cc2c(sc3nc(-c4cc5ccccc5o4)n(N)c(=O)c23)CO1, Cc1c2c(nc3nc4ccccc4n13)CC(C)(C)CC2=O is lower in z-score: -0.00131 for the first, -0.428 for the second.

First: COc1ccc(/C(O)=C/c2nc3ccc(C(=O)NCCc4cccc(C)c4)cc3[nH]c2=O)cc1OC
Second: COC(=O)c1ccccc1NC(=S)N(Cc1ccc2c(c1)OCO2)Cc1cc2ccc(C)cc2[nH]c1=O
The z-score of the first is lower: -0.389 for the first, 0.26 for the second.

First: CC1CCCCN1CCNC(=O)C1CC(=O)N(c2ccc(F)c(Cl)c2)C1 (stereo unspecified)
Second: O=C(COc1ccc(Cl)cc1Cl)N1CCCC1
The z-score of the first is lower: -0.399 for the first, -0.0258 for the second.

Compared with CCCCC(=O)Nc1sc2c(c1C(N)=O)CCC2, Cn1cc(Br)c(C(=O)Nc2sc3c(c2C(N)=O)CCC3)n1 is higher in z-score: -1.03 for the first, -0.0793 for the second.

Compared with COC(=O)c1c(-c2cccnc2)csc1NC(=O)c1cc(C)on1, CCOC(=O)c1sc(NC(=O)Nc2ccc(Cl)cc2)cc1C is higher in z-score: -1.32 for the first, -0.165 for the second.

Going from O=C(c1ccc2nc(-c3ccco3)c(-c3ccco3)nc2c1)N1CCN(c2ncccn2)CC1 to Cc1sc(NC(=O)c2ccco2)c(CN2CCN(c3ccccc3)CC2)c1C, the z-score rises from -0.289 to -0.213.

Compared with Nc1c(S(=O)(=O)c2ccccc2)c2nc3ccccc3nc2n1Cc1ccco1, c1ccc(-c2noc(-c3ccc4ccccc4c3)n2)cc1 is higher in z-score: -0.688 for the first, -0.296 for the second.

Going from CCOC(=O)Cc1csc2nc3sc(C)c(C)c3c(=O)n12 to COC(=O)Cc1c(C)c2ccc(OCc3nn[nH]n3)c(C)c2oc1=O, the z-score rises from -0.129 to 0.2.

Going from O=C(OCC#CCSc1nnc(-c2ccc([N+](=O)[O-])cc2)o1)c1cccs1 to COc1ccc(/C=N/NC(=O)CCSc2nc3ccccc3s2)cc1, the z-score rises from 0.545 to 1.6.

Going from CC(C)CC(=O)N1CCN(S(=O)(=O)c2ccc(F)cc2)CC1 to CCCC(=O)Nc1ccc(S(=O)(=O)N2CCCC2)cc1, the z-score falls from 0.488 to -0.314.

Compared with c1cncc(CNC2CCCc3ccccc32)c1 (stereo unspecified), CC(C)(C)N(Cc1cc2ccccc2[nH]c1=O)C(=O)c1cccnc1 is higher in z-score: -0.427 for the first, 1.31 for the second.

Going from CCOC(=O)C1CCN(Cc2ccc(C(=O)OC)cc2)CC1 to CCOC(=O)c1ccc(N2C(=O)C3CC=C(C)CC3C2=O)cc1 (stereo unspecified), the z-score falls from 1.03 to -0.795.

Compared with CC(=O)N/C(=N\OCc1ccccc1Cl)c1nonc1NC(C)=O, CC(N=C1NS(=O)(=O)c2ccccc21)C(=O)NCc1ccc2c(c1)OCO2 (stereo unspecified) is lower in z-score: -0.0503 for the first, -0.102 for the second.

First: CCC(C)c1ccccc1NC(=O)COC(=O)c1ccc2[nH]c3c(c2c1)CCCC3 (stereo unspecified)
Second: CCOC(=O)c1c(NC(=O)COc2cccc3c2CCN(CC)C3=O)sc2c1CCC2
The z-score of the first is higher: -0.0793 for the first, -0.925 for the second.

Going from Cn1c(=O)c2c(-c3ccccc3)n(-c3ccccc3O)cc2n(C)c1=O to CCOc1c(C(N)=O)c(-c2ccccc2)c2c(=O)[nH]c3ccccc3n12, the z-score rises from -0.388 to 0.243.

Compared with CCCCCCC(=O)Nc1c2c(nc3ccccc13)N(C)CC2, Cc1ccc(NC(=O)C2=C(O)CCn3c2nc2ccccc23)cc1 is higher in z-score: -0.102 for the first, -0.0826 for the second.

First: COc1cc(/C=c2\sc3nc(-c4ccncc4)nn3c2=O)ccc1OC(C)=O
Second: COc1ccccc1-c1cc2nc(C)c(CCC(=O)NC(C)CCc3ccco3)c(C)n2n1 (stereo unspecified)
The z-score of the first is lower: -0.777 for the first, -0.37 for the second.

First: COCCn1nnnc1CN(CCCN1CCOCC1)Cc1cc2c(C)ccc(C)c2[nH]c1=O
Second: CCOC(=O)c1cc(C)n(CCCN2CCOCC2)c1C
The z-score of the first is lower: 0.0213 for the first, 0.369 for the second.

Compared with Cc1ccc(NC(=O)CN2C(=O)CSC2=O)cc1, O=C(CSCc1ccc(Cl)cc1Cl)Nc1c[nH]c(=O)[nH]c1=O is lower in z-score: -0.151 for the first, -0.284 for the second.

Compared with CC(C)CNS(=O)(=O)c1ccc2c(c1)OCCO2, COc1cccc(NS(=O)(=O)c2ccc3[nH]cc(C(=O)N(C)Cc4ccco4)c(=O)c3c2)c1 is higher in z-score: -0.266 for the first, -0.064 for the second.

Compared with N#CC1=C(SCC(=O)Nc2nccs2)NC(=O)CC1c1ccccc1 (stereo unspecified), O=C(Nc1cc(=O)[nH]c2ncnn12)c1ccccc1 is higher in z-score: -0.5 for the first, -0.422 for the second.

First: O=C(Nc1cccc2ccccc12)C12CC3CC(C1)CC(n1cnc([N+](=O)[O-])n1)(C3)C2
Second: Cc1ccc(-c2ncccc2OC(=O)C23CC4CC(CC(C4)C2)C3)cc1
The z-score of the first is lower: -0.118 for the first, 0.0781 for the second.

First: Cn1ncc(Cl)c(Oc2ccc(C(C)(C)C)cc2)c1=O
Second: O=C(COc1ccc(Cl)cc1)Nc1ccc(Cl)cn1
The z-score of the first is higher: 0.28 for the first, 0.0102 for the second.

Going from Cc1cc(SCCOc2ccccc2)nc(N)n1 to Cc1cc(C)n2nc(Nc3ccccc3)cc2n1, the z-score falls from 0.961 to 0.47.

Compared with O=C(Nc1ccc(O)c(-c2nc3ccccc3s2)c1)c1cc(=O)c2ccccc2o1, O=C(Nc1cccc(Cl)c1)C1=Cc2cc(Cl)ccc2OC1 is lower in z-score: -0.229 for the first, -0.313 for the second.

Compared with CC(C)(C)CC(C)(C)NC1=CC(=O)OC12CCCCC2, COc1ccc(C(=O)N2CCN(Cc3cc(OC)c(O)c(OC)c3)CC2)cc1OC is lower in z-score: -0.189 for the first, -0.421 for the second.

Going from Cc1ccc(Oc2ncccc2/C=N/OCc2ccc(Cl)c(Cl)c2)cc1 to CCOc1ccc(S(=O)(=O)Nc2nc3ccc(OC)cc3s2)cc1, the z-score falls from 0.00844 to -0.352.

Going from Cn1c(=O)c2c(nc(SCCN3CCOCC3)n2Cc2ccccc2Cl)n(C)c1=O to CCNc1oc(COc2ccccc2F)nc1C#N, the z-score rises from -0.442 to 0.592.

Compared with C=CCSc1nc(O)c(CC)c(=O)n1C(C)CC (stereo unspecified), CCCCN(C(=O)CCC(=O)O)C1CC(=O)N(c2ccc(OCCC)cc2)C1=O (stereo unspecified) is lower in z-score: 0.657 for the first, -0.292 for the second.

Going from N#CCCCCN1c2cccc3cccc(c23)S1(=O)=O to O=C(NCc1nnc(SCc2ccc(F)cc2)n1-c1ccc(F)cc1)C12CC3CC(CC(C3)C1)C2, the z-score falls from 0.762 to -0.0115.

In the case of CCOc1ccccc1OCCCCCc1c(C)n[nH]c1C, the z-score is reported as active: 3.05.
